A collection of fitness landscapes (doi:10.1016/j.celrep.2020.107928)
Over roughly 81,000 sequences, “one-hybrid fitness for binding parS DNA” has its median near -0.17; the highest 2% begin near 0.51. Some of the results follow.

B1: Caulobacter ParB omega fusion; a variant is named by its letters at X, in order, B8GW30 (parent)
chain: MESVVVGEPGMSEGRRGLGRGLSALLGEVDAAPAQAPGEQLGGSREAPIEILQRNPDQPRRTFREEDLEDLSNSIREKGVLQPILVRPSPDTAGEYQIVAGERAWRAAQRAGLKTVPIMVRELDDLAVLEIGIIENVQRADLNVLEEALSYKVLMEKFERTQENIAQTIGKSXSHVANXMRLLXLPDEVQSYLVSGELTAXHARAIAAAADPVALAKQIIEGGLSVRETEALARKAPNLSAGKSKGGRPPRVKDTDTQALESDLSSVLGLDVSIDHRGSTGTLTITYATLEQLDDLCNRLTRGI

Variants of: B1
Test: one-hybrid fitness for binding parS DNA (scaled: cognate 1, non-cognate 0); higher = stronger binding
Details: with parS DNA site
Outline: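 Selection: bacterial one-hybrid in E. coli USO, HIS3 reporter with the site 19 bp from the promoter, 48 hours at 37°C on M9-minus-histidine plus 0.1 mM IPTG and 5 mM 3-AT. Libraries were Caulobacter ParB with four randomised specificity codons, sequenced on Illumina before and after selection. Fitness is the rescaled log change in variant-to-wild-type read ratio, anchored to the cognate and non-cognate sites.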

| Variant | one-hybrid fitness for binding parS DNA |
| --- | --- |
| MDWG | ≤ 0.2 |
| SYPF | ≤ 0.2 |
| QSWG | ≤ 0.2 |
| ALAE | ≤ 0.2 |
| PERR | ≤ 0.2 |
| TAFT | ≤ 0.2 |
| WDRR | ≤ 0.2 |
| RYQV | ≤ 0.2 |
| MLFC | ≤ 0.2 |
| DYLT | ≤ 0.2 |
| LEAW | ≤ 0.2 |
| RICP | ≤ 0.2 |
| ITNK | ≤ 0.2 |
| PFIC | ≤ 0.2 |
| PHGW | ≤ 0.2 |
| RWKG | 0.901 |
| ARNA | ≤ 0.2 |
| ARYC | ≤ 0.2 |
| QVSN | ≤ 0.2 |
| AYMR | ≤ 0.2 |
| TSFQ | ≤ 0.2 |
| YMWL | ≤ 0.2 |
| AYNG | ≤ 0.2 |
| TVTM | ≤ 0.2 |
| PLFD | ≤ 0.2 |
| LYAY | ≤ 0.2 |

| Variant | one-hybrid fitness for binding parS DNA |
| --- | --- |
| KDVS | ≤ 0.2 |
| DGVM | ≤ 0.2 |
| VIVG | ≤ 0.2 |
| ADKR | ≤ 0.2 |
| WGLR | ≤ 0.2 |
| TAKK | ≤ 0.2 |
| FVVG | ≤ 0.2 |
| RMVL | ≤ 0.2 |
| QNLD | ≤ 0.2 |
| RDHY | ≤ 0.2 |
| QISF | ≤ 0.2 |
| QYEV | ≤ 0.2 |
| IRRC | ≤ 0.2 |
| VWHT | ≤ 0.2 |
| IPSC | ≤ 0.2 |
| THTG | ≤ 0.2 |
| CYMR | ≤ 0.2 |
| RQPN | ≤ 0.2 |
| RYMS | 0.963 |
| ACCG | ≤ 0.2 |
| RDSP | ≤ 0.2 |
| SPQM | ≤ 0.2 |
| CTRR | ≤ 0.2 |
| NPFK | ≤ 0.2 |
| SASR | ≤ 0.2 |
| CWKG | ≤ 0.2 |

| Variant | one-hybrid fitness for binding parS DNA |
| --- | --- |
| GLRA | ≤ 0.2 |
| ADCA | ≤ 0.2 |
| GLVG | ≤ 0.2 |
| RIYC | 0.964 |
| SFWR | ≤ 0.2 |
| DMAR | ≤ 0.2 |
| NINV | ≤ 0.2 |
| HQLT | ≤ 0.2 |
| TLHL | ≤ 0.2 |
| RRTD | ≤ 0.2 |
| ECHE | ≤ 0.2 |
| YVDA | ≤ 0.2 |
| CAIS | ≤ 0.2 |
| HGRR | ≤ 0.2 |
| CLCG | ≤ 0.2 |
| RHGW | ≤ 0.2 |
| GTFE | ≤ 0.2 |
| RKEN | 0.351 |
| GTSL | ≤ 0.2 |
| LNSC | ≤ 0.2 |
| MIPR | ≤ 0.2 |
| HSMV | ≤ 0.2 |
| TIYG | ≤ 0.2 |
| SHPH | ≤ 0.2 |
| HPEC | ≤ 0.2 |
| DEHN | ≤ 0.2 |

| Variant | one-hybrid fitness for binding parS DNA |
| --- | --- |
| AAKF | ≤ 0.2 |
| STEW | ≤ 0.2 |
| RSFF | ≤ 0.2 |
| SYPL | ≤ 0.2 |
| QPND | ≤ 0.2 |
| EIQC | ≤ 0.2 |
| LYKR | ≤ 0.2 |
| SFTP | ≤ 0.2 |
| GFGY | ≤ 0.2 |
| LQKK | ≤ 0.2 |
| LRFH | ≤ 0.2 |
| SKSG | ≤ 0.2 |
| QLVW | ≤ 0.2 |
| PGRT | ≤ 0.2 |
| PHAF | ≤ 0.2 |
| DETM | ≤ 0.2 |
| MSNS | ≤ 0.2 |
| MRID | ≤ 0.2 |
| DGHF | ≤ 0.2 |
| CCQY | ≤ 0.2 |
| TLLY | ≤ 0.2 |
| LDDM | ≤ 0.2 |
| SFAP | ≤ 0.2 |
| YQGC | ≤ 0.2 |
| AHLD | ≤ 0.2 |
| VAMH | ≤ 0.2 |

| Variant | one-hybrid fitness for binding parS DNA |
| --- | --- |
| PEPD | ≤ 0.2 |
| NLWC | ≤ 0.2 |
| GYDR | ≤ 0.2 |
| IEAA | 0.301 |
| PCGS | ≤ 0.2 |
| QNHG | ≤ 0.2 |
| LTAP | ≤ 0.2 |
| AMYS | ≤ 0.2 |
| RYSL | ≤ 0.2 |
| VMVR | ≤ 0.2 |
| SLCT | ≤ 0.2 |
| HTNG | ≤ 0.2 |
| PNHS | ≤ 0.2 |
| ERKY | ≤ 0.2 |
| RTKF | 0.734 |
| SMAN | ≤ 0.2 |
| GVVS | ≤ 0.2 |
| MSRT | ≤ 0.2 |
| RMYV | ≤ 0.2 |
| MKPF | ≤ 0.2 |
| YCCS | ≤ 0.2 |
| IKAC | ≤ 0.2 |
| AKQC | ≤ 0.2 |
| YGFT | ≤ 0.2 |
| THHV | ≤ 0.2 |
| SNTM | ≤ 0.2 |

| Variant | one-hybrid fitness for binding parS DNA |
| --- | --- |
| STGP | ≤ 0.2 |
| DLTW | ≤ 0.2 |
| LNTS | ≤ 0.2 |
| VKRV | ≤ 0.2 |
| EQAF | ≤ 0.2 |
| ENKC | ≤ 0.2 |
| LQLI | ≤ 0.2 |
| YFDI | ≤ 0.2 |
| FARS | ≤ 0.2 |
| DFDS | ≤ 0.2 |
| FLYT | ≤ 0.2 |
| ITCR | ≤ 0.2 |
| KGHG | ≤ 0.2 |
| DTNG | ≤ 0.2 |
| CPGR | ≤ 0.2 |
| VAVG | ≤ 0.2 |
| KLIL | ≤ 0.2 |
| ASRQ | ≤ 0.2 |
| VWHS | ≤ 0.2 |
| FKSL | ≤ 0.2 |
| RQDA | 0.546 |
| QKNG | ≤ 0.2 |
| NNGV | ≤ 0.2 |
